From article PMC12820563, “FoxP3 forms a head-to-head dimer in vivo and stabilizes its multimerization on adjacent microsatellites” come the findings set out here.

This is one part of the list.

This test deals with T1, MBP-FoxP1dN (Mus musculus, UniProt P58462 326-579).
T1 sequence: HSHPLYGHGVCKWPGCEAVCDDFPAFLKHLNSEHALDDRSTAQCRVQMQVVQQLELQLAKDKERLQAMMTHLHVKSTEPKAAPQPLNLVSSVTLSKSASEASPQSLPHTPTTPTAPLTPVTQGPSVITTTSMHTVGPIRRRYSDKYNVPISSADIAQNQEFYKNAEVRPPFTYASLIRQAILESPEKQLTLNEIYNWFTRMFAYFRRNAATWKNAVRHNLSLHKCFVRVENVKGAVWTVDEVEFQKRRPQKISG
The test can be described thus: PD-seq (MBP pull-down with sequencing); 20 mM Tris-HCl pH 7.5, 100 mM NaCl, 1.5 mM MgCl2, 0.4 uM protein, 0.1 uM dsDNA library, 30 min, room temperature, amylose pull-down; high values mean tight binding. Conditions: protein: recombinant; tags: His6-MBP; chain copies: 2; dsDNA, one strand shown. An outline of the steps:
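Protein and DNA were mixed at 0.4 µM and 0.1 µM and held for 30 min at room temperature in Tris pH 7.5 buffer with NaCl and MgCl2; the protein was a His6-MBP-tagged, N-terminally truncated mouse FoxP3 or FoxP1 fragment from E. coli, and the DNA a Klenow-filled double-stranded degenerate library. Amylose resin captured the complexes, which were washed three times. Binding is read as reads-per-million enrichment of pull-down versus input after Illumina sequencing, with replicates pooled.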
Turning to “GATGATTGTTCTCCCAGCTGATGAATTCAGGATGTCGAGTAAACAAATTTTCCTAATCTTTCTGTTCAAGCGCCATCTAC”, the binding signal was 0.854 RPM ratio (pull-down/input).

In the case of “GATGATTGTTCTCCCAGCTGATGAATTCACGCTATCGAGTAAACAAATTTTCCTAATCTTTCTGTTCAAGCGCCATCTAC”, the binding signal is 1.08 RPM ratio (pull-down/input).

“GATGATTGTTCTCCCAGCTGATGAATTGCGGATATCGAGTAAACAAATTTTCCTAATCTTTCTGTTCAAGCGCCATCTAC”: the binding signal is 1.17 RPM ratio (pull-down/input).

As to “GATGATTGTTCTCCCAGCTGATGAATTATTGCGATCGAGTAAACAAATTTTCCTAATCTTTCTGTTCAAGCGCCATCTAC”, the binding signal was 1.14 RPM ratio (pull-down/input).

In the case of “GATGATTGTTCTCCCAGCTGATGAATTGCAATACTCGAGTAAACAAATTTTCCTAATCTTTCTGTTCAAGCGCCATCTAC”, the binding signal is 1.34 RPM ratio (pull-down/input).

“GATGATTGTTCTCCCAGCTGATGAATTCGATTGGTCGAGTAAACAAATTTTCCTAATCTTTCTGTTCAAGCGCCATCTAC”: the binding signal is 0.866 RPM ratio (pull-down/input).

With “GATGATTGTTCTCCCAGCTGATGAATTGCGTTTATCGAGTAAACAAATTTTCCTAATCTTTCTGTTCAAGCGCCATCTAC”, the binding signal is 1.46 RPM ratio (pull-down/input).

For “GATGATTGTTCTCCCAGCTGATGAATTCGTTGTGTCGAGTAAACAAATTTTCCTAATCTTTCTGTTCAAGCGCCATCTAC”, the binding signal was 1.1 RPM ratio (pull-down/input).

As to “GATGATTGTTCTCCCAGCTGATGAATTGAAGCCTTCGAGTAAACAAATTTTCCTAATCTTTCTGTTCAAGCGCCATCTAC”, the binding signal is 0.888 RPM ratio (pull-down/input).

As to “GATGATTGTTCTCCCAGCTGATGAATTATCCCCTTCGAGTAAACAAATTTTCCTAATCTTTCTGTTCAAGCGCCATCTAC”, the binding signal was 0.963 RPM ratio (pull-down/input).

“GATGATTGTTCTCCCAGCTGATGAATTCCAAATCTCGAGTAAACAAATTTTCCTAATCTTTCTGTTCAAGCGCCATCTAC”: the binding signal was 0.84 RPM ratio (pull-down/input).

“GATGATTGTTCTCCCAGCTGATGAATTGTCACGCTCGAGTAAACAAATTTTCCTAATCTTTCTGTTCAAGCGCCATCTAC”: the binding signal was 0.98 RPM ratio (pull-down/input).

On to “GATGATTGTTCTCCCAGCTGATGAATTTGCCTGGTCGAGTAAACAAATTTTCCTAATCTTTCTGTTCAAGCGCCATCTAC”, for which the binding signal is 0.802 RPM ratio (pull-down/input).

For the sequence “GATGATTGTTCTCCCAGCTGATGAATTGTCCGGGTCGAGTAAACAAATTTTCCTAATCTTTCTGTTCAAGCGCCATCTAC”, the binding signal was 0.835 RPM ratio (pull-down/input).

For the sequence “GATGATTGTTCTCCCAGCTGATGAATTGCGGCAATCGAGTAAACAAATTTTCCTAATCTTTCTGTTCAAGCGCCATCTAC”, the binding signal is 1.29 RPM ratio (pull-down/input).

On to “GATGATTGTTCTCCCAGCTGATGAATTGTTGAACTCGAGTAAACAAATTTTCCTAATCTTTCTGTTCAAGCGCCATCTAC”, for which the binding signal was 1.06 RPM ratio (pull-down/input).

Take “GATGATTGTTCTCCCAGCTGATGAATTCTGCGTGTCGAGTAAACAAATTTTCCTAATCTTTCTGTTCAAGCGCCATCTAC”: the binding signal is 0.955 RPM ratio (pull-down/input).

“GATGATTGTTCTCCCAGCTGATGAATTTATTTTGTCGAGTAAACAAATTTTCCTAATCTTTCTGTTCAAGCGCCATCTAC”: the binding signal is 1.62 RPM ratio (pull-down/input).

With “GATGATTGTTCTCCCAGCTGATGAATTGCTGCGTTCGAGTAAACAAATTTTCCTAATCTTTCTGTTCAAGCGCCATCTAC”, the binding signal is 1.02 RPM ratio (pull-down/input).

As for “GATGATTGTTCTCCCAGCTGATGAATTACAGCATTCGAGTAAACAAATTTTCCTAATCTTTCTGTTCAAGCGCCATCTAC”, the binding signal was 1.35 RPM ratio (pull-down/input).

For “GATGATTGTTCTCCCAGCTGATGAATTTGTGGCCTCGAGTAAACAAATTTTCCTAATCTTTCTGTTCAAGCGCCATCTAC”, the binding signal is 1.06 RPM ratio (pull-down/input).

On to “GATGATTGTTCTCCCAGCTGATGAATTCAGCTTGTCGAGTAAACAAATTTTCCTAATCTTTCTGTTCAAGCGCCATCTAC”, for which the binding signal is 0.872 RPM ratio (pull-down/input).

For “GATGATTGTTCTCCCAGCTGATGAATTTCGTCAATCGAGTAAACAAATTTTCCTAATCTTTCTGTTCAAGCGCCATCTAC”, the binding signal is 1.08 RPM ratio (pull-down/input).

As to “GATGATTGTTCTCCCAGCTGATGAATTTTGAACTTCGAGTAAACAAATTTTCCTAATCTTTCTGTTCAAGCGCCATCTAC”, the binding signal was 0.94 RPM ratio (pull-down/input).

For “GATGATTGTTCTCCCAGCTGATGAATTATCACGTTCGAGTAAACAAATTTTCCTAATCTTTCTGTTCAAGCGCCATCTAC”, the binding signal was 1.03 RPM ratio (pull-down/input).

With “GATGATTGTTCTCCCAGCTGATGAATTAAGTCTATCGAGTAAACAAATTTTCCTAATCTTTCTGTTCAAGCGCCATCTAC”, the binding signal is 0.866 RPM ratio (pull-down/input).

As for “GATGATTGTTCTCCCAGCTGATGAATTGACGCGTTCGAGTAAACAAATTTTCCTAATCTTTCTGTTCAAGCGCCATCTAC”, the binding signal was 1.11 RPM ratio (pull-down/input).

Turning to “GATGATTGTTCTCCCAGCTGATGAATTAGGTGGCTCGAGTAAACAAATTTTCCTAATCTTTCTGTTCAAGCGCCATCTAC”, the binding signal is 0.87 RPM ratio (pull-down/input).

On to “GATGATTGTTCTCCCAGCTGATGAATTCAAATTATCGAGTAAACAAATTTTCCTAATCTTTCTGTTCAAGCGCCATCTAC”, for which the binding signal is 0.993 RPM ratio (pull-down/input).

“GATGATTGTTCTCCCAGCTGATGAATTAGCCCGGTCGAGTAAACAAATTTTCCTAATCTTTCTGTTCAAGCGCCATCTAC”: the binding signal is 0.779 RPM ratio (pull-down/input).

Consider “GATGATTGTTCTCCCAGCTGATGAATTCGTGCAGTCGAGTAAACAAATTTTCCTAATCTTTCTGTTCAAGCGCCATCTAC”, for which the binding signal was 0.909 RPM ratio (pull-down/input).
